Out of some 71,000 compounds screened, about 1,800 (2.5%) were called active. Inconclusive results, whose numbers are uncertain, are shown with a selection of clear calls. Calls follow the shape of the dose curve; as a rule, active = well fitted activation curve with a large enough effect in the signal ratio, with a control signal flat (not every such curve was filed as active); inconclusive = small, poorly fitted or top-dose-only effect, or effect the other way, or a change in a side signal; inactive = flat fitted curve, though single readings scatter; the % refers to the signal ratio. Where the call is inconclusive, the potency comes from a doubtful curve fit.
experiment: Cell signaling CRE-BLA (Fsk stim); conditions: CHO CRE-bla reporter (cAMP response element driving beta-lactamase), forskolin EC10, beta-lactamase ratio; activity change, negative = inhibition: at 38.2 µM (top of the series) unless noted; as to activity change, negative = inhibition: % of control where 0% means no effect
In short: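 AC50 values, positive or negative, reflect shifts in EC10 NKH 477-induced CRE-bla reporter activity in CHO cells. Incubation lasted 3 h at 37 °C before CCF4 substrate (2 h, room temperature) and ratiometric 460/530 nm reading.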
Potency is read from the fitted curve at half-maximal effect; tags tell the direction and shape of the fitted curve.

Row | Compound | Potency | activity change, negative = inhibition
1 | O=C(c1cccs1)N1CCCc2ccccc21 | inactive | 
2 | CCOc1ccccc1NC(=O)Cn1nnc(C(=O)Nc2ccc(C)cc2)c1N |  | inconclusive: -10.9%
3 | CCOCCCNC(=O)c1cn(C)c(=O)c2cc(OC)c(OC)cc12 | active: 5.01 µM | 
4 | Cn1c(SCC(=O)N2c3ccccc3Sc3ccc(Cl)cc32)nnc1-c1ccco1 | inconclusive: 15.8 µM [rising, single point] | 
5 | COc1ccccc1CNc1nc(-c2ccccc2OC)nc2ccccc12 | inactive | 
6 | c1ccc(Cn2nnc3c(N4CCc5ccccc54)ncnc32)cc1 | inactive | 
7 | c1ccc(-c2nnc(SCc3nc4ccccc4[nH]3)o2)cc1 | inconclusive: 3.98 µM [rising, partial curve] | 
8 | O=C(Nc1ccc(S(=O)(=O)N2CCOCC2)cc1)c1ccc(Br)o1 | inconclusive: 20 µM [rising, single point] | 
9 | CCC(c1nnnn1CC1CCCO1)N(CCN1CCOCC1)Cc1cc2cc(C)ccc2[nH]c1=O (stereo not given) | inactive | 
10 | Oc1ccc(CNc2ccc(F)cc2)c2cccnc12 | inactive | 
11 | CCOc1ccccc1NC(=O)CSc1nnc(-c2cnccn2)n1CC | inconclusive: 10 µM [rising, single point] | 
12 | CN(C)C(=O)COc1ccc2cc(-c3ccccc3)c(=O)oc2c1 | inactive | 
13 | COc1cc2c(cc1O)[C@@H](c1cc(O)c(O)c(OC)c1)[C@@](O)(C(=O)O)[C@@H](CO)[C@@H]2O |  | inactive: -10.4% [at 7.6 µM]
14 | Cc1ccc(Cl)cc1N(CC(=O)NC1CCCCC1)S(C)(=O)=O | inactive | 
15 | Cc1c(-c2ccc(F)cc2)nc(N)c(C#N)c1-c1ccco1 | active: 1.58 µM | 
16 | CNc1ncncc1-c1ccccc1C | inactive | 
17 | COCCn1c(=O)c(-c2ccccc2)nc2cnc(Oc3ccccc3)nc21 |  | inconclusive: 13.4%
18 | O=c1sc(N2CCN(c3ccccc3F)CC2)nc2ccsc12 |  | inconclusive: 15.7%
19 | C=CCc1cccc(C2Nc3ccccc3C(=O)N2O)c1O (stereo not given) | inactive | 
20 | COC(=O)c1ccc(C(NC(=O)OCc2ccccc2)/C(=C/[C@@H](C)C(=O)NCc2ccc(OC)c(O)c2)c2cccnc2)cc1 (stereo not given in full) | inactive | 
21 | O=C(O)C1CC1c1ccc(Br)cc1 (stereo not given) |  | inconclusive: 15.6%
22 | Cc1ccc(S(=O)(=O)c2c(N)n(NC(=O)C3CC3)c3nc4ccccc4nc23)cc1 |  | inconclusive: 27.4%
23 | CCCc1nnc(SCC(=O)Nc2ccc(OCC)cc2)n1N |  | inconclusive: 12.7%
24 | CCOC(=O)C1CCN(Cc2ccc(O)c(OC)c2)CC1 | inconclusive: 3.98 µM [rising, partial curve, poor fit] | 
25 | Nc1c(NCc2ccccc2F)c(=O)[nH]c(=O)n1Cc1ccccc1 | inconclusive: 15.8 µM [rising, single point] | 
26 | c1ccc(-c2csc3ncnc(NCCN4CCOCC4)c23)cc1 |  | inconclusive: 25.6%
27 | O=C(O)COc1ccc(S(=O)(=O)c2ccc(OCC(=O)O)cc2)cc1 |  | inconclusive: -29.3% [at 7.6 µM]
28 | Cn1c(=O)c2c(nc(Br)n2CCc2ccccc2)n(C)c1=O |  | inconclusive: 25.4%

Row | Compound | Potency | activity change, negative = inhibition
29 | Cc1cccc(-c2c3c(=O)n(C)c(=O)n(C)c3cn2CCO)c1 |  | inconclusive: 21.9%
30 | O=C(CS(=O)(=O)c1ccccc1)N1CCCCCC1 | inactive | 
31 | COC(=O)[C@@]1(Cc2ccc(OC)cc2)[C@H]2c3cc(C(=O)N(C)C)n(Cc4cc(F)c(F)c(F)c4)c3C[C@H]2CN1C(=O)c1ccccc1 | inactive | 
32 | CC(C)CC(=O)N1CCN(C(=O)CCC2CCCC2)CC1 | inactive | 
33 | COc1cccc(NC(=O)/C=C\c2ccc(Cl)cc2)c1 |  | inconclusive: -11.4%
34 | CCn1cc(C(=O)OCC(=O)NCc2ccc3c(c2)OCO3)c(=O)c2ccc(C)nc21 | inactive | 
35 | Cc1occc1-c1nnc(SCC(=O)Nc2ccccc2)n1CCc1ccccc1 | inconclusive: 25.1 µM [falling, single point] | 
36 | Cn1c(=O)[nH]c2cc3ccccc3cc21 |  | inconclusive: 9.82%
37 | COC(=O)c1ccc(Cn2cnc3c(cnn3-c3ccc(Cl)cc3)c2=O)o1 | active: 6.31 µM | 
38 | COc1cc(SC)ccc1C(=O)NC1CCCCC1 | inconclusive: 0.0126 µM [rising, full curve, poor fit] | 
39 | CCOC(=O)Cc1csc(NC(=O)c2cccc(OC)c2)n1 |  | inconclusive: 15.4%
40 | COCCNc1ncnc2ccc(-c3ccccc3C(F)(F)F)cc12 |  | inconclusive: 18.9%
41 | COC(=O)c1ccc(CSc2nncn2C)cc1 | inconclusive: 5.01 µM [falling, single point] | 
42 | COC(=O)c1ccc(CSc2nc(-c3ccco3)cc(C(F)(F)F)n2)o1 | inconclusive: 10 µM [rising, partial curve] | 
43 | Nc1nc(-c2c[nH]c3ccccc23)cs1 |  | inconclusive: -13%
44 | COc1ccc(NC(=O)c2cccc(NC(=O)c3ccco3)c2)c(OC)c1 | inconclusive: 0.02 µM [rising, partial curve] | 
45 | CCc1c(C)nc(SCC(=O)CC(=O)OC(C)C)c(C#N)c1C |  | inconclusive: 19.4%
46 | C/C=C\C(=O)N(CC)c1ccccc1C | inactive | 
47 | CCOC(=O)c1coc(CNC(=O)c2c(C)oc3c2CCCC3)c1 |  | inconclusive: 29.4%
48 | COCCNC(=O)C1CC(c2cccc(OC)c2)=NO1 (stereo not given) | inconclusive: 0.0501 µM [falling, full curve, poor fit] | 
49 | COc1ccc(C(=O)N2CCC[C@@]3(CCN(c4ccccc4)C3)C2)cc1 | inactive | 
50 | CCOc1ccccc1Oc1c(C)oc2cc(OC(=O)N3CCOCC3)ccc2c1=O | inactive | 
51 | COc1ccc2ccccc2c1CN1CCN(C(=O)c2ccccc2)CC1 |  | inconclusive: 5.65% [at 7.6 µM]
52 | Cc1ccc2c(CC(=O)Nc3sccc3C(N)=O)coc2c1 | inconclusive: 10 µM [rising, single point] | 
53 | O=C(O)c1cc(-c2ccccn2)n[nH]1 | inactive | 
54 | O=C1CC(C(=O)Nc2ccc(O)c(C(=O)O)c2)C(c2ccccc2)O1 (stereo not given) | inactive | 
55 | CCOC(=O)c1cnn2c(C)cc(-c3ccc(F)cc3)nc12 | inconclusive: 12.6 µM [rising, partial curve] | 
